Source: publication PMC4336329 (PLoS ONE, 2015)
Screen size: about 310,000 compounds; about 2,200 (0.71%) showed an effect of 50% or more. Effects have a minus sign here. This is one part of the list.

molecular target: human ether-à-go-go-related gene (hERG) potassium channel (human, UniProt Q12809); experiment: primary screen, population patch clamp on CHO cells stably expressing hERG
Sequence (Q12809 whole entry, looked up): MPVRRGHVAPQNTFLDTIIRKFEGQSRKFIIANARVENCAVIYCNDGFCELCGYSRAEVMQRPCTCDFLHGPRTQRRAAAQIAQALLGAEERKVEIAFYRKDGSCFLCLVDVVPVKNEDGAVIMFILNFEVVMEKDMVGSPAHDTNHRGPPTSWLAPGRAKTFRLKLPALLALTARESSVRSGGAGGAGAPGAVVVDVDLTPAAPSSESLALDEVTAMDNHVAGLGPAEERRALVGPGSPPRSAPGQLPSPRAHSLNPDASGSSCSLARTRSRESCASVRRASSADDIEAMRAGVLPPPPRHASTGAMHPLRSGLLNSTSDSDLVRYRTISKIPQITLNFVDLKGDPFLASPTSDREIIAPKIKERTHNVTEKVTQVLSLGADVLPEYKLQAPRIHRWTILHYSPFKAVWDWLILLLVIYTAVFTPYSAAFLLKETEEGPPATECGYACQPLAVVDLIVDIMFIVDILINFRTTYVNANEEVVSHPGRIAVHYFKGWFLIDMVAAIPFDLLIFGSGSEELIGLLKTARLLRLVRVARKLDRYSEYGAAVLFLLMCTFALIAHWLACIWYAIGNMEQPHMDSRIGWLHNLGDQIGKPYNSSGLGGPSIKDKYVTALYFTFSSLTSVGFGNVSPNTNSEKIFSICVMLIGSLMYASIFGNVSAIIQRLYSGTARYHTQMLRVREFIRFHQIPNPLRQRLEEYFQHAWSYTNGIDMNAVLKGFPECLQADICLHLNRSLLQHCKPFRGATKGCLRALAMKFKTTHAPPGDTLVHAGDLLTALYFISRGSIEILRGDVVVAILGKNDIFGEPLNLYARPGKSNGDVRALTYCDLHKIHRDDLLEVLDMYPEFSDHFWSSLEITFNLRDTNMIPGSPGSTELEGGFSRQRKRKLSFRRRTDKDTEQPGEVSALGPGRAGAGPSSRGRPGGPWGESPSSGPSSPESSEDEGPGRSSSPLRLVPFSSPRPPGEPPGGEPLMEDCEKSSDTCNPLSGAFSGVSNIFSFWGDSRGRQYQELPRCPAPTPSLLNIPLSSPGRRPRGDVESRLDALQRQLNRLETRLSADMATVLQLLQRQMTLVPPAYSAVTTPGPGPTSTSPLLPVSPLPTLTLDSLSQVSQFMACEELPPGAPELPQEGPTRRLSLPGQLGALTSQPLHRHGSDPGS

Structure (SMILES) | hERG current change (%, negative = inhibition) at 1uM
COC(=O)c1ccccc1NC(=O)N1c2ccccc2CC1C (centres unmarked) | -0.865%
CC1CN(C(=O)c2cc(-c3ccc(Cl)s3)nc3ccccc23)CC(C)O1 (centres unmarked) | 11.5%
CCCOC(=O)c1ccc(Oc2cn[nH]c2-c2ccc(O)cc2O)cc1 | 7.56%
COc1ccc(/C=C/C(=O)c2cc(Br)ccc(=O)c2O)cc1 | 17.6%
CCN(CC)CCCN=Cc1c(O)n(Cc2ccc(F)cc2)c(=O)[nH]c1=O | -5.47%
COc1cc2c(cc1OC)CN(C(=O)CCOc1ccccc1C)CC2 | 17.1%
COC(=O)c1cc(OC)c(OC)cc1NC(=S)N1CCC(C(N)=O)CC1 | 9.37%
CC1CCCCN1C(=O)c1ccc(C(=O)N2CCCCC2C)cc1 (centres unmarked) | 6.64%
Cn1c(N)c(C(=O)COC(=O)c2cccnc2Cl)c(=O)n(C)c1=O | 5.34%
COc1ccc(OCC(=O)NC(=S)Nc2ccc3c4c(cccc24)CC3)cc1 | 9.48%
Cc1[nH]c(=S)[nH]c(=O)c1Cc1ccccc1 | 13.2%
COc1cc([N+](=O)[O-])cc(/C=N/NC(=O)c2cc(C)nc3ccccc23)c1O | 10.9%
Cc1ccccc1-c1nc(CN2CCC(C(=O)N3CCC(C(N)=O)CC3)CC2)c(C)o1 | 9.1%
CCOc1ccc2c(=O)c(Oc3ccccc3)c(C)oc2c1 | 2.44%
Cn1nc([N+](=O)[O-])nc1Sc1cccc2cccnc12 | 3.74%
Cc1ccc(NC(=O)NCc2ccccn2)c(C)c1 | 14%
Cc1noc(C)c1S(=O)(=O)Nc1ccc(C(=O)N2CCN(c3cccc(Cl)c3)CC2)cc1 | 3.09%
C#CCOCCOCCOCCNc1nc(N2CCN(C(=O)[C@H](Cc3cc4ccccc4[nH]3)n3cc([C@@H](N)C(C)CC)nn3)CC2)nc(N2CCN(C(=O)[C@H](Cc3cc4ccccc4[nH]3)n3cc([C@@H](N)CC(C)C)nn3)CC2)n1.Cl (some centres unmarked) | 0.297%
COc1ccc(C(=O)O)nc1C | 14.1%
CN(Cc1ccon1)C(=O)C1CCN(C2CCN(CCCc3ccccc3)CC2)CC1 | -1.33%
CCCCNCCCOc1cc(Cl)ccc1Cl.O=C(O)C(=O)O | -12.1%
CCOc1ccc(S(=O)(=O)N2CCN(C(=O)CN3C(=O)NC(C)(C)C3=O)CC2)cc1 | 8.94%
CC(C)c1ccc(-c2nc(N3CCCCCC3)nc3n[nH]c(N)c23)cc1 | 10.2%
